Data from patent US20060073154A1 (priority 2001, published 2006).

Tested on: S. pyogenes strain D471 adherence to bovine submaxillary mucin
Details: strain D471 preincubated with 25 mM sugar, 30 min at 37° C., washed; 1 μg mucin/well

Row | Structure (SMILES) | effect on adherence of strain D471 to bovine mucin compared to untreated bacteria | reduced adherence to bovine mucin compared to untreated bacterial control [%]
1 | CC(=O)N[C@H]1C(O)O[C@H](CO)[C@H](O)[C@@H]1O (some centres unmarked) [GalNAc, N-acetylgalactosamine] | did not significantly affect adherence | –
2 | CC(=O)N[C@H]1C(O)O[C@H](CO)[C@@H](O)[C@@H]1O (some centres unmarked) [GlcNAc, N-acetylglucosamine] | doubled | –
3 | C[C@H](O)[C@@H](O)[C@@H](O)[C@H](O)C=O [fucose, L-fucose] | did not significantly affect adherence | –
4 | O=C[C@H](O)[C@@H](O)[C@@H](O)[C@H](O)CO [galactose, D-galactose] | did not significantly affect adherence | –
5 | CC(=O)N[C@H]1[C@H]([C@H](O)[C@H](O)CO)OC(O)(C(=O)O)C[C@@H]1O (some centres unmarked) [sialic acid, N-acetylneuraminic acid] | – | 80
